In all, about 410,000 compounds went through this assay and about 5,000 (1.2%) were called active. This list was built around the results that the source calls inconclusive (neither active nor inactive); the mix of calls is not that of the screen. The call rests on the fitted dose curve; in most records, active means well fitted inhibition curve with a large enough effect; inconclusive means small, poorly fitted or top-dose-only effect; inactive means no such curve, though single readings can be large or run the other way. Potencies beside an inconclusive call are fits to weak or partial responses and may not hold up.
Assay: qHTS for Inhibitors of TGF-b; further: nearly all actives have a fitted effect of over 65% in size
Settings: HepG2 CAGA-GFP TGF-b/SMAD3 reporter, GFP fluorescence, 18 h, TGF-beta stimulated, 500 pg/mL final; series mostly up to 46.1 µM
Summary of the method: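 Smad-responsive CAGA-GFP expression was quantified in HEPG2 cells exposed to compounds and 500 pg/mL final TGF-beta for 18 h at 37 degrees C; unstimulated wells defined full inhibition.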
Potency means the concentration at half of the fitted maximal effect; tags describe the fitted curve by direction and shape.

Compound	Potency
COc1ccc(-c2cc3nc(C)c(CCC(=O)N4CCN(c5ccccn5)CC4)c(C)n3n2)c(OC)c1	inactive
O=C(O)C1=CC[C@@H](c2ccc(Cl)cc2)N(S(=O)(=O)c2ccc(Cl)cc2)[C@H]1c1cccc(Cl)c1	inconclusive: 17.8 µM [inhibitor, single point]
COc1ccc(-c2csc(NC(=O)Cc3ccccc3F)n2)cc1OC	inconclusive: 35.5 µM [inhibitor, single point]
O=C(Cn1c(SCC(=O)Nc2ccc(F)cc2)nc2ccccc21)NCc1ccccc1Cl	inconclusive: 25.1 µM [inhibitor, single point]
COc1ccc(/C=C/C(=O)O)cc1S(=O)(=O)NC1CCS(=O)(=O)C1 (configuration not stated)	inactive
CC(C)(C)NC(=O)CSC(=Nc1cccc(F)c1)NC#N	inactive
Cc1cccc(NC(=O)CN(C)CC(=O)NC(c2ccccc2)c2ccccc2)c1C	inconclusive: 35.5 µM [inhibitor, single point]
O=C(CC1SC2=NCCN2C1=O)Nc1ccc(Br)cc1 (configuration not stated)	inactive
CCOC(=O)COc1ccc(F)cc1C(=O)c1ccn2nc(-c3ccc(C)cc3)cc2n1	inactive
CN1c2ccccc2C(C)(C)C12C=Nc1c(cc(N3CCOCC3)c3ccccc13)O2 (configuration not stated)	inconclusive: 3.55 µM [inhibitor, full curve, poor fit]
COc1ccc(CN(C)C(c2ccccc2)c2nnnn2-c2ccccc2C)c(OC)c1C (configuration not stated)	inconclusive: 35.5 µM [inhibitor, single point]
CCOC(=O)C1=CCN(S(=O)(=O)c2ccccc2C)C1c1ccc(Cl)cc1 (configuration not stated)	inconclusive: 20 µM [inhibitor, single point]
COc1ccccc1NC(=O)C(Cc1ccccc1)NS(=O)(=O)c1cccc2nsnc12 (configuration not stated)	inconclusive: 12.6 µM [inhibitor, single point]
C[C@H](NC(=O)c1nc[nH]c1C(=O)N1CCNCC1)C(=O)OC(C)(C)C	inactive
CS(=O)(=O)c1ccc(-c2sc3ccccc3c2C#CCCO)cc1	active: 11.2 µM
CN(C)c1ccc(CC(=O)N2CCCC(c3cc(C(=O)Nc4ccc(F)c(Cl)c4)no3)C2)cc1 (configuration not stated)	inconclusive: 17.8 µM [inhibitor, single point]
NC(=O)CC(NC(=O)Cc1ccc(Br)cc1)c1ccc(N2CCN(c3ccccn3)CC2)c([N+](=O)[O-])c1 (configuration not stated)	active: 7.94 µM
Cc1cccc(NC(=O)c2cc(Cl)nc3ccccc23)n1	inconclusive: 0.199 µM [inhibitor, full curve, poor fit]
CCOC(=O)c1c(-c2ccccc2)csc1NC(=O)CSc1nc(C)cc(C)n1	inconclusive: 35.5 µM [inhibitor, single point]
COc1ccc(S(=O)(=O)N(Cc2nc(-c3ccc(Cl)cc3)no2)C2CCCCC2)cc1	inconclusive: 5.01 µM [inhibitor, partial curve]
CCOc1ccccc1NC(=O)CN1C(=O)CSC(C)C1=O (configuration not stated)	inconclusive: 35.5 µM [inhibitor, single point]
O=C(NC(c1ccc(-c2ccccc2)cc1)c1cnccn1)C1CCN(Cc2ccc3c(c2)OCO3)CC1 (configuration not stated)	inconclusive: 35.5 µM [inhibitor, single point]
Cc1ccc(F)cc1NC(=S)NCCc1ccccc1	inconclusive: 35.5 µM [inhibitor, partial curve, poor fit]

Compound	Potency
O=C(CSc1ccccc1Cl)c1ccco1	inconclusive: 8.91 µM [inhibitor, partial curve]
Cc1ccc(C)c(N2N=C(C(=O)Nc3ccc(N4CCOCC4)cc3)CCC2=O)c1	inactive
Cc1ccc(NC(=O)CSc2ccc(-c3ccccn3)nn2)cc1F	inconclusive: 7.08 µM [inhibitor, partial curve, poor fit]
Cc1ccc([N+](=O)[O-])cc1N=Nc1c(C)[nH]n(C(N)=S)c1=O	inconclusive: 2.51 µM [inhibitor, full curve]
Cc1onc(-c2ccccc2)c1CNS(=O)(=O)c1ccccc1	inactive
CN1CCN(c2nc(Nc3ccc(F)cc3)nc(Nc3ccc(F)cc3)n2)CC1	inconclusive: 20 µM [inhibitor, single point]
Cc1nn(-c2ccccc2)c(C)c1/C=N/n1c(-c2ccncc2)n[nH]c1=S	inactive
CC1(C)CC(=O)C=C(c2ccc(-c3ccccc3)cc2)C1	inconclusive: 1.12 µM [inhibitor, full curve, poor fit]
CCOc1ccc2nc(N3CCCC(C(=O)NCCCN4CC(C)CC(C)C4)C3)sc2c1 (configuration not stated)	inconclusive: 22.4 µM [inhibitor, single point]
COc1ccc(-n2cc(C(=O)OCc3ccc(Cl)cc3)c3ccccc3c2=O)cc1	inactive
O=C(CSc1nnc(NC(=O)C2CC(=O)N(c3ccccc3)C2)s1)NCC1CCCO1 (configuration not stated)	inconclusive: 2.24 µM [inhibitor, partial curve, poor fit]
O=C(/C=C\c1ccco1)Nc1cc([N+](=O)[O-])ccc1F	inconclusive: 4.47 µM [inhibitor, partial curve, poor fit]
COc1ccc(-c2ccc(C3C4C=CCCC4(C)C(=O)N3Cc3ccccc3)c(F)c2)cc1OC (configuration not stated)	inconclusive: 35.5 µM [inhibitor, single point]
Oc1c(Br)cc(Br)cc1CNc1cnc2ccccc2c1	inconclusive: 35.5 µM [inhibitor, single point]
Nc1ccn(CC(=O)NCc2ccc3[nH]ccc3c2)c(=O)n1	inactive
CCOC(=O)c1cnc2ccc(OCC)cc2c1N1CCN(c2ccccc2)CC1	inconclusive: 35.5 µM [inhibitor, single point]
O=C(NC(=S)NCCC1=CCCCC1)c1cncc(Br)c1	inconclusive: 35.5 µM [inhibitor, single point]
CCOC(=O)N1CCN(C(=O)C2COc3ccccc3O2)CC1 (configuration not stated)	inactive
Cc1ccccc1/C=C1\C(=O)Nc2ccc(F)cc21	inconclusive: 17.8 µM [inhibitor, single point]
COc1ccc(Cl)cc1Cn1c(C)c(C(=O)NCc2cccc(C(F)(F)F)c2)sc1=O	inconclusive: 22.4 µM [inhibitor, single point]
COc1ccc([C@H]2CC(=O)C=C(c3ccccc3)C2)cc1OC	inactive
N#Cc1ccccc1-n1c(N)c(C(=O)N2CCCC2)sc1=S	inconclusive: 28.2 µM [inhibitor, single point]
CCOc1ccccc1Oc1ncnc2c1oc1ccccc12	inactive

Compound	Potency
CC1CCC(NC(=O)c2ccc3c(c2)N(Cc2ccccc2F)C(=O)c2ccccc2S3(=O)=O)CC1 (configuration not stated)	inconclusive: 0.112 µM [inhibitor, full curve, poor fit]
CCOC(=O)c1cc(C)n(CC2CCC(C(=O)Nc3cccc(C(C)=O)c3)CC2)c1C (configuration not stated)	active: 14.1 µM
Cc1ccc(S(=O)(=O)Nc2ccc(-c3ccc(N4CCCCCC4)nn3)cc2)c(C)c1	inactive
CCOc1ccccc1CNCc1c(C(=O)O)n(Cc2ccccc2)c2cc(OC)ccc12	inconclusive: 6.31 µM [inhibitor, single point]
CCC(C(=O)O)N1C(=O)/C(=C/C(C)=C/c2ccccc2)SC1=S (configuration not stated)	inconclusive: 17.8 µM [inhibitor, partial curve, poor fit]
CCOc1ccccc1C1C(C(=O)Nc2ccccc2)=C(C)Nc2nc(-c3ccccc3)nn21 (configuration not stated)	inconclusive: 17.8 µM [inhibitor, single point]
CC1CCc2c(sc3nnn(Cc4ccccc4Cl)c(=O)c23)C1 (configuration not stated)	inactive
Cc1c(Cl)cccc1NC(=S)NCc1ccccc1Cl	inconclusive: 35.5 µM [inhibitor, single point]
CCOc1cc(S(=O)(=O)NC2CCCC2)ccc1Cl	inconclusive: 35.5 µM [inhibitor, single point]
Cc1cc(/C=N/n2cnnc2)c(C)n1-c1ccc(OCc2ccc(F)cc2)cc1	inconclusive: 20 µM [inhibitor, partial curve, poor fit]
COc1ccc(-c2csc(NC3CCCCC3)n2)c(OC)c1	inconclusive: 0.251 µM [inhibitor, full curve, poor fit]
S=c1[nH]nc(-c2ccco2)n1/N=C/C=C/c1ccccc1	inconclusive: 17.8 µM [inhibitor, single point]
CCOc1ccccc1OCC(=O)OCC(=O)c1c(N)n(CC(C)C)c(=O)n(C)c1=O	inconclusive: 6.31 µM [inhibitor, full curve, poor fit]
CC(C)C(NS(=O)(=O)c1c(Cl)cccc1Cl)C(=O)OCC(=O)c1c[nH]c2ccccc12 (configuration not stated)	inconclusive: 25.1 µM [inhibitor, single point]
Fc1cccc(CN2CCN3CCCC3C2C2CCCCC2)c1 (configuration not stated)	inactive
CCN(CC)C(=O)c1cccc(-c2csc(C(C)(O)c3cccc(F)c3)n2)c1 (configuration not stated)	inconclusive: 15.8 µM [inhibitor, single point]
Cc1cc(C(=O)CSc2nnc(Nc3ccccc3)s2)c(C)n1CC1CCCO1 (configuration not stated)	inconclusive: 35.5 µM [inhibitor, single point]
Cc1ccc(S(=O)(=O)N2CCN(C(=O)COC(=O)/C=C/c3ccccc3)CC2)c(C)c1	inactive
c1ccc2c(c1)[nH]c1c(N3CCC4(CC3)OCCO4)ncnc12	inconclusive: 14.1 µM [inhibitor, single point]
Cc1cc(C[n+]2cc(Cl)ccc2N)c2ncccc2c1	inactive
CCc1ccc(CNC(=O)c2cccc(-n3c(C)nc4cccnc43)c2)cc1	inactive

From PubChem BioAssay AID588855 (National Center for Advancing Translational Sciences (NCATS), 2011)
